# Measured values reported in the supplement of paper PMC11417369.
# ± gives the standard deviation of the averaged measurements. This is one part of the list.
# System: PfAP2-G AP2 domain (GST-tagged)
# Assay: gcPBM binding intensity (ln(normalized median fluorescence intensity)); higher = stronger DNA binding
# In short: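 An Agilent 4 × 180k array carrying primer-extended double-stranded 36-bp intergenic genomic probes and negative controls received GST-tagged P. falciparum DNA-binding domains expressed in E. coli, about 25 μg on average, for 1 h. The binding buffer contained 1× PBS, 1% milk, 0.2 mg/ml BSA, 0.5% salmon testes DNA and 0.03% Triton X-100. Binding intensity is the top Masliner-normalised natural-log median intensity across replicate spots of either probe orientation, read after Alexa488 anti-GST antibody staining and a 488 nm scan.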
row,Sequence,gcPBM binding intensity (ln)
1,ACCCATAAAAAGGATACACACACACCCACCCATATA [CACACA_site8205],10.6 ± 0.34
2,ATATATATATTTGTATGTACATATATATATTCGTAT [XGTACX_site1640],11.1 ± 0.51
3,TTTCCTTATTAAAACACACAAATACATTATTTAATC [CACACA_site7080],9.875 ± 0.035
4,GAGCATTACCCATATACACACATATATATAAACCTA [CACACA_site2737],10.2 ± 0.13
5,ACATTTTTTTCATATCGTACATATTATAATATTTTC [XGTACX_site6524],10.9 ± 0.52
6,AAAAAAAAAAAAGGAGGTACACAATTTTATATATGC [XGTACX_site5296],11.3 ± 0.76
7,ACAAGTCAGGCAAAAACATGCATTATTTGAACATTA [TGCATGCA_site864],9.95 ± 0.24
8,GTACGATAAAAAATTGGACAAAAAAAAAAAAAAAAT [XGTACX_negctrl_site158],10.8 ± 0.38
9,ATTTCATAAATTAAACGTACATAATACACACACATG [XGTACX_site4155],11.5 ± 0.67
10,TAAAACAACAAAGAAAATGAAAAAGTAAAAACATAT [CACACA_negctrl_site1049],9.91 ± 0.15
11,TTTTGTTATTTTTTAGTGCATATAAAGGTTGTTAAG,10.2 ± 0.24
12,TTTTGCAATAATGTTGCACACTAAATAGTCATCTAT [CACACA_site4304],10.08 ± 0.071
13,TTGGATAAAAAATATGTACACACATATAGATATCTA [CACACA_site8862],11.4 ± 0.87
14,TGATAAAATGGGGAAATTCATTATATCATATCTTGG [CACACA_negctrl_site789],9.6 ± 0.28
15,ATTATATTAAAATACACACCCAAATATTAAAAAGAT [CACACA_site5613],10.4 ± 0.19
16,TTTGAAATATTAAATGCATGTTAAAACATAAAAATG [TGCATGCA_site680],9.98 ± 0.13
17,TTTCTTCTTCTATTGTGTACGTAAAAAAAAAAAAAA [XGTACX_site772],11.6 ± 0.95
18,GGTAATTTCCTTTTTTGTACTCATAGAAGGATAATA [XGTACX_site89],11.4 ± 0.91
19,ATTATTATATTTATATGTACATAGAAAAAATTAAAT [XGTACX_site2058],11.3 ± 0.72

row,Sequence,gcPBM binding intensity (ln)
1,AAAGTGGCCATATATTTTTTTTTTTTTTTCCTTATT [CACACA_negctrl_site485],10.3 ± 0.25
2,AAAAATAAAGGATATACACACTAATTATATATATAT [CACACA_site5550],9.855 ± 0.049
3,AATATTTATAAAGACACACAAACAAAAAGGATAAAA [CACACA_site2985],10.4 ± 0.2
4,TCATTTAAGTAGACGCGTACGGAAATTACGAATCCT [XGTACX_site144],11.1 ± 0.69
5,TCAGATATATATATATAAATATATATTTTGAAATGT [CACACA_negctrl_site686],9.58 ± 0.085
6,TAGTATCCAAGAAAAAGTACTTATTTTAATTTTTTA [XGTACX_site6243],11.2 ± 0.83
7,AGTTTGTTTTTTTTTTTTTTTTCCTGTCACAAACAA [CACACA_negctrl_site1093],10.2 ± 0.26
8,TCTCCACCTCTCTTGGTGCGTTATACCCTCGAGGCT,9.83 ± 0.071
9,TATAACAAAATATTCACACATATAAGTAAATAAAGG [CACACA_site5777],10.04 ± 0.057
10,TCAAAGCACCCATACACACACATATATATATATATA [CACACA_site4317],10.4 ± 0.47
11,GTACGTTACATAAATGTGCACATATTATATGCGAAG,10.9 ± 0.3
12,GTCATATATATATGTACACACATATATATATTTATA [CACACA_site1459],11.3 ± 0.92
13,TTTTTTTTTTGTTGAGTGCAATTATTTGTAAGAAAA,10.2 ± 0.4
14,AAATTAATATATAAAAGTACCCATATATTTAATATA [XGTACX_site3551],11.1 ± 0.64
15,AAGACTGCACTTTAAGCACACAAATATATTTTTTTT [CACACA_site8337],10.18 ± 0.064
16,AAGAAAAAAATTTAATTAAATGAAATTTTTGAATTA [TGCATGCA_negctrl_site25],9.69 ± 0.099
17,TTCTGACTTGTTATAATTTGTATATCCGAAAAAATT [TGCATGCA_negctrl_site456],10.1 ± 0.16
18,ACTATTATTAAAAATTGTACTTTCTATAAATTTTTT [XGTACX_site7825],11.1 ± 0.62
19,ATTTTGTGTAGTGATGCATGTTATATATATATTTGA [TGCATGCA_site422],10.01 ± 0.078

row,Sequence,gcPBM binding intensity (ln)
1,AGAAACATATGGTAGTGTACTGTAAATTTATTCTTT [XGTACX_site8602],11.3 ± 0.77
2,TTTTATTGTTTTTTTTTTTTTTCTTTTTTTTTTTTT [CACACA_negctrl_site1094],9.79 ± 0.39
3,CGTTATTATACACATACACACAGGAATAAAAAATTA [CACACA_site7373],10.2 ± 0.26
4,ATAACATCAGTATTATGTACATATGTAGGTAAATAA [XGTACX_site7066],11.1 ± 0.65
5,TTTTGTTTAATATTCACACATATATATTTTTTATTT [CACACA_site5496],9.82 ± 0.16
6,CTTTTTATTTAGGAGGTGCATGTAATACGGAACATA,10.4 ± 0.41
7,TATGAATAAAAAAGAAGTACAAATTATATGAACGCA [XGTACX_site3018],11.5 ± 0.66
8,AAAAAATACAAACACACACACACACCCATATATATA [CACACA_site3560],10.1 ± 0.27
9,GATCTATACATGGGGACACACATCACTCTATATTTT [CACACA_site3408],11.1 ± 0.59
10,ATTTGTTATATATTCTTTTATGTTAATAATTCGAAT [CACACA_negctrl_site378],9.72 ± 0.071
11,CATACTGTTATAAAATGTACGCATATACACACACAT [XGTACX_site7256],11.4 ± 0.83
12,ATATATATATTTATATGTACGAAATATAAAAAAAAA [XGTACX_site5054],10.9 ± 0.45
13,CTTTTTTTTTTTTTTACACACCCAAATCACATACAT [CACACA_site4051],10.6 ± 0.66
14,GAATAATATATATATTGTACTTTTTATTTATATTAT [XGTACX_site3180],11.3 ± 1
15,AAAATATAATATAATGCACACATAAAACAAAAAAAA [CACACA_site8989],10 ± 0.24
16,AAAAAAAAATTAATATATAAAAGGATATATATATAT [GTGCAC_negctrl_site449],9.77 ± 0.46
17,ATATATATATATATATGTACATATATACATATACAT [XGTACX_site2350],11.1 ± 0.62
18,ACATATAAATATATTACACACACACTAAAAAAATAA [CACACA_site6209],10.1 ± 0.15
19,CACCTTATAAATACTGCACACATAAAATATATATTA [CACACA_site8908],10.3 ± 0.17
